From PubChem BioAssay AID1346428 (National Center for Advancing Translational Sciences (NCATS), 2018)
Out of some 48,000 compounds screened, about 1,200 (2.5%) were called active. About 2% were inconclusive and are not listed.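 The calls were made as follows: active = activation of at least 60% and not above a set upper limit (about 1 call in 100 departs from these limits); inconclusive = activation of 40% to 60%, or above that upper limit; inactive = activation under 40%.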 Some of the results follow.

Biological target: Probable G-protein coupled receptor 32 (Homo sapiens) (UniProt O75388)
Chain of UniProt O75388 (O75388 whole entry, looked up): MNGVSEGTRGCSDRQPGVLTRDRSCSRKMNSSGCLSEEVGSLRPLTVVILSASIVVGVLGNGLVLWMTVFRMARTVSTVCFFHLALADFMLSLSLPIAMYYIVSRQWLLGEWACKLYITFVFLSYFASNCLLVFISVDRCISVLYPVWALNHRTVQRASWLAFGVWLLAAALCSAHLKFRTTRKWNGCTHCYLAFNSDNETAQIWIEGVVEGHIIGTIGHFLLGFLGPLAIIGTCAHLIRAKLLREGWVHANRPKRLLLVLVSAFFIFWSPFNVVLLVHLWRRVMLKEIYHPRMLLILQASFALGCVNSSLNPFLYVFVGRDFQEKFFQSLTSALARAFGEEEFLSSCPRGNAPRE
Assay: qHTS for Agonists of Human Resolvin D1 Receptor DRV1
Details: CHO-K1 GPR32 beta-arrestin PathHunter luminescence, 90 min; at 76.9 µM; stronger effect = higher value; zero percent set by DMSO-only wells
How it was run: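 Using DMSO wells as EC0, agonist-induced signal was taken as chemiluminescence from beta-Gal reconstituted upon beta-arrestin recruitment to GPR32 in CHO-K1 cells after 90 min compound treatment.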

Row | SMILES | activation
1 | COC(=O)CN1C(C(=O)c2ccccc2)=C(OC(=O)c2ccccc2)c2ccccc2S1(=O)=O | inactive: -1.58%
2 | Cc1ccc(NC(=O)CCCn2nc(C)c3c(C)n(-c4ccccc4)nc3c2=O)c(Cl)c1 | inactive: -12.4%
3 | O=C(Nc1c2c(nn1-c1ccc(Cl)cc1)CS(=O)(=O)C2)c1ccc(Br)cc1 | inactive: 22.8%
4 | CCCSCCCNC(=O)Cn1c(-c2cccs2)cc2ccccc21 | inactive: -8.43%
5 | CCOC(=O)c1cc(NC(=O)c2ccc(F)cc2)c(=O)n2c1oc1ccc(Cl)cc12 | inactive: -5.97%
6 | Cc1cc(O)c(CN2CCN(c3ccccc3)CC2)c2oc(=O)cc(C)c12 | inactive: -13.1%
7 | Cc1nc(-c2ccc(S(=O)(=O)NCc3ccccc3Cl)cc2)co1 | inactive: 46.5%
8 | CCN1CCN(C(=O)Cn2ncc3c4ccccc4n(Cc4c(C)cc(C)cc4C)c3c2=O)CC1 | inactive: -16.8%
9 | CCCn1c2ccccc2c2cnn(CC(=O)N3CCCC(C(=O)OCC)C3)c(=O)c21 (stereo not drawn) | inactive: -12.1%
10 | Cc1ccc(C(=O)Nc2cnc3ccccn3c2=O)cc1 | inactive: -8.4%
11 | CCCCN(CCCC)C(=O)c1c[nH]c2ccc(S(=O)(=O)Nc3cccc(Cl)c3C)cc2c1=O | inactive: -11.4%
12 | CCC1=C(C)CN(C(=O)NCCc2ccc(S(=O)(=O)NC(=O)NC3CCC(C)CC3)cc2)C1=O (stereo not drawn) | inactive: 47.9%
13 | COC(=O)CN1C(=O)CSc2ccc(S(=O)(=O)Nc3ccc(C)c(Cl)c3)cc21 | inactive: -6.99%
14 | O=C(Cc1ccc(-c2ccccc2)cc1)NCCS(=O)(=O)N1CCN(c2ccccc2F)CC1 | inactive: -25%
15 | COc1cccc(NC(=O)C2CCCN(c3ncnc4onc(C)c34)C2)c1 (stereo not drawn) | inactive: 11.3%
16 | O=C(Nc1ccccc1C(=O)N1CCCCC1)c1nsc2ccccc12 | inactive: -26.8%
17 | CCc1ccc(NC(=O)c2cc(=O)c3ccc(C)c(C)c3o2)cc1 | inactive: -14.4%
18 | COc1ccc(NC(=O)CNC(=O)Cn2ccc3ccccc3c2=O)cc1OC | inactive: -1.65%
19 | CNC(=O)c1cnc2sc(N3CCC(C)CC3)nn2c1=O | inactive: -8.74%
20 | CCCCCOc1ccc(/C=C/C(=O)Nc2sc3c(c2C(=O)OCC)CCC3)cc1OC | inactive: 12.1%
21 | O=C(Nc1ccc(F)c(F)c1)c1cc(S(=O)(=O)NC2CCCC2)ccc1F | inactive: -12.3%

Row | SMILES | activation
22 | CN1CCN(c2cc3c(nn2)Oc2ccccc2N3C)CC1 | inactive: 0.609%
23 | Cc1cccc(N2CCN(CCCNc3ncnc4onc(-c5ccc(F)cc5)c34)CC2C)c1 (stereo not drawn) | inactive: -4.28%
24 | COc1cccc(C(=O)Nc2ccc3nc(SCCOc4ccccc4)sc3c2)c1 | inactive: 4.56%
25 | O=C(CCNS(=O)(=O)c1ccc2c(c1)CCN2C(=O)C1CC1)Nc1ccc(OC(F)(F)F)cc1 | inactive: 29.2%
26 | CCC(C)NC(=O)Cn1ccc2cc(S(=O)(=O)N3CCCCCC3)ccc21 (stereo not drawn) | inactive: 12.2%
27 | CCc1ccc2oc(-c3cc(NC(=O)c4cccs4)ccc3Cl)nc2c1 | inactive: 1.64%
28 | CC(C)CCNc1nc2c(-c3ccccc3)nnn2c2ccccc12 | inactive: 10.3%
29 | Oc1ccc(OCc2ccccc2)cc1 | inactive: -16.6%
30 | Cc1ccc(C(=O)CSc2nc3cc(C(=O)NC4CCCC4)ccc3c(=O)n2CC2CCCO2)c(C)c1 (stereo not drawn) | inactive: 4.24%
31 | COc1cccc(NC(=O)c2oc3ccccc3c2NC(=O)c2ccccc2C)c1 | inactive: -23.4%
32 | O=C(CC1N=C2c3ccccc3N=C(SCc3cccc(F)c3)N2C1=O)NCc1cccs1 (stereo not drawn) | inactive: -14.7%
33 | COc1cccc(-c2cc(C(=O)Nc3cnn(Cc4ccc(Cl)cc4Cl)c3)no2)c1 | inactive: -2.68%
34 | CCOc1ccc(CNC(=O)c2ccc(CSc3nc4ccncc4n3Cc3ccc(F)cc3)cc2)cc1 | inactive: -20.2%
35 | Cc1nn(-c2ccccc2)c2nc(C3CC3)cc(C(=O)Nc3cccc(F)c3)c12 | inactive: -3.77%
36 | COC(=O)c1ccccc1NC(=O)CSc1n[nH]c(CC(C)C)n1 | inactive: -9.04%
37 | Cc1ccc(CNC(=O)CCNS(=O)(=O)c2ccc3c(c2)CCCC(=O)N3)cc1 | inactive: 15.4%
38 | CCCCN(CCCC)CCCNC(=O)c1ccc2nc(N3CCCCC3)sc2c1 | inactive: 9.82%
39 | COc1ccc(OC)c(Nc2nc3ccccc3nc2-n2nc(C)cc2C)c1 | inactive: -30.2%
40 | COc1ccc2c(c1)c1c(c(=O)n(-c3cc(Cl)ccc3C)c(=O)n1CC(=O)N1CCCC1)n2C | inactive: -6.68%
41 | COc1ccc(-c2nnn3c2nc(NCCc2ccc(OC)c(OC)c2)c2ccccc23)cc1 | inactive: 14.1%
42 | Cc1nn2c(=O)cc(COc3ccc(/C=C(\C#N)C(=O)Nc4ccccc4C)cc3)nc2s1 | inactive: 3.54%

Row | SMILES | activation
43 | CCOC(=O)c1cccc(NC(=O)CCc2c(C)nn(-c3ccc(N4CCCCC4)nn3)c2C)c1 | inactive: -6.39%
44 | Cc1ccc(Sc2c(C)nn(C(C)(C)C)c2OC(=O)CC(C)C)cc1 | inactive: 17.8%
45 | Cc1c(C(=O)OC2CCC(C)CC2)[nH]c2c1C(=O)CC(c1ccc(F)cc1)C2 (stereo not drawn) | inactive: 0.448%
46 | COc1ccc(Cn2ccc3nc(C)c(C(=O)N4CCN(c5ccc(F)cc5)CC4)cc3c2=O)cc1 | inactive: -5.69%
47 | Cc1ccccc1NC(=O)c1c(NC(=O)c2ccccc2F)sc2c1CCC(C)C2 (stereo not drawn) | inactive: 6.83%
48 | CCCCN1C(=O)c2[nH]nc(-c3ccccc3O)c2C1c1ccc(OCc2ccccc2)c(OC)c1 (stereo not drawn) | inactive: 4.58%
49 | COc1ccccc1NC(=O)c1ncn(-c2ccccc2)n1 | inactive: -8.85%
50 | CCOC(=O)c1[nH]c2c(c1Cc1ccccc1)C(=O)CC(c1ccc(C(C)(C)C)cc1)C2 (stereo not drawn) | inactive: -18.6%
51 | CCOC(=O)C1CCN(C(=O)c2cnn(-c3ccc(F)cc3)c2-n2cccc2)CC1 | inactive: -2.09%
52 | CN(CC(=O)Nc1ccc(F)cc1F)S(=O)(=O)c1cccc2nsnc12 | inactive: 14.8%
53 | CCN(CC)CCCNC(=O)c1sc2nc3n(c(=O)c2c1C)CCCCC3 | inactive: -14.1%
54 | COc1ccc(C(=O)Nc2nc3c(s2)Cc2c(Br)ccc(OC)c2-3)cc1OC | inactive: 10.6%
55 | Cc1cc(C)cc(N(CC(=O)Nc2c(C)cc(C)cc2C)S(=O)(=O)c2c(C)nn(C)c2C)c1 | inactive: 0%
56 | CCN(CC)S(=O)(=O)c1cc(-c2ccc(=O)n(C(C)C(=O)Nc3cccc(C#N)c3)n2)ccc1C (stereo not drawn) | inactive: -3.92%
57 | CCc1ccc(NC(=O)CSc2nnc(CC)c(CC)n2)cc1 | inactive: -3.45%
58 | Cc1ccc(Cn2c(CN3CCC(C(=O)O)CC3)cc3ccccc32)cc1 | inactive: -12.9%
59 | CCOc1ccccc1NC(=O)CCS(=O)(=O)c1ccc2c(c1)oc(=O)n2C | inactive: 11.2%
60 | CC(C)NC(=O)C1CCCN(c2ncnc3onc(-c4ccc(F)cc4)c23)C1 (stereo not drawn) | inactive: -4.45%
61 | CCOc1cc(-c2nnc(SCC(=O)NC3CCCCC3)nc2-c2ccc(OC)c(OCC)c2)ccc1OC | inactive: -17.4%
62 | COc1ccc(CNC(=O)CCCn2ccc3cc(S(=O)(=O)N4CCCC4)ccc32)cc1 | inactive: -17.2%
63 | COc1ccc2oc(-c3cccc(NC(=O)c4cc([N+](=O)[O-])ccc4N4CCOCC4)c3)nc2c1 | inactive: -11.7%

Row | SMILES | activation
64 | CCOC(=O)C(C)Sc1nnc2cc(C)c3ccccc3n12 (stereo not drawn) | inactive: -15.3%
65 | COc1cc(C2c3c(-c4c(C)cc(C)cc4O)n[nH]c3C(=O)N2Cc2ccco2)cc(OC)c1OC (stereo not drawn) | active: 64.9%
66 | Cc1ccccc1CNC(=O)C1CCCCN1S(=O)(=O)c1ccc(F)cc1 (stereo not drawn) | inactive: -9.96%
67 | O=[N+]([O-])c1ccc(S(=O)(=O)N2CCn3cccc3C2c2ccc(Br)cc2)cc1 (stereo not drawn) | inactive: -9.15%
68 | COc1ccc(C(CNC(=O)c2oc3cc(Br)ccc3c2C)N2CCCCC2)cc1 (stereo not drawn) | inactive: -11.1%
69 | COc1ccc(OC)c(-c2cc(C(=O)Nc3c(C)nn(Cc4ccc(C)cc4)c3C)no2)c1 | inactive: 9.71%
70 | COc1ccc(Nc2ncc3c(n2)CCN(Cc2sccc2C)C3)c(OC)c1 | inactive: 24.9%
71 | COc1ccc2c(CNCCc3ccco3)c(C(=O)O)n(Cc3ccc(C)cc3)c2c1 | active: 89.4%
72 | Cc1ccc(-n2ncc3c(NCCCN(C)C)ncnc32)cc1Cl | inactive: 39.2%
73 | O=C(Cn1ncc2c3ccccc3n(Cc3ccccc3)c2c1=O)NCc1ccccn1 | inactive: -13.7%
74 | Cc1ccc(NC(=O)c2c(C)oc3ccc(O)c(CN4CCN(Cc5ccccc5)CC4)c23)cc1 | inactive: -5.57%
75 | Cc1ccc(-n2nc(C(=O)N(C)c3ccc(C)c(C)c3)c3c4ccccc4n(C)c3c2=O)cc1 | inactive: -7.93%
76 | Cc1ccc(CN2CCC(CNC(=O)c3cnn(-c4ccc(C)cc4)c3C3CCN(C(=O)OC(C)(C)C)CC3)CC2)cc1 | inactive: -23.2%
77 | CCOC(=O)CN1C(=O)N(c2ccc(C)c(C)c2)S(=O)(=O)c2ccccc21 | inactive: -6.92%
78 | Cc1ccc(S(=O)(=O)N(CC(=O)Nc2cccnc2)c2cc(Cl)ccc2C)cc1 | inactive: 34.4%
79 | CCOc1ccc(CNC(=O)C2CCCN(c3nn4cc(-c5ccc(OC)cc5)nc4s3)C2)cc1 (stereo not drawn) | inactive: -6.12%
80 | COc1ccc(NC(=O)CC2C(=O)N(c3ccccc3)C(=O)N2CCc2sccc2C)cc1 (stereo not drawn) | inactive: -6.67%
81 | Cc1cccc(NC(=O)CCCn2nc(C)c3c(C)n(-c4ccccc4)nc3c2=O)c1C | inactive: -13.5%
82 | Cc1cc(=O)n(CC(=O)Nc2ccc(Cl)c(Cl)c2)c(-n2nc(C)cc2C)n1 | inactive: -1.12%
83 | CN1C(=O)c2ccccc2Sc2ccc(NC(=O)Cc3ccc(Cl)cc3)cc21 | inactive: -10.6%
